According to PubChem BioAssay AID463173 (ICCB-Longwood Screening Facility, Harvard Medical School, 2010):
The whole screen tested about 52,000 compounds, of which about 4,300 (8.3%) were called active. Rule as the data show it: active = survival mostly below about 52% (no sharp cut-off); inactive = mostly above about 56%. Some of the results follow.

System: DeltatarO mutant
Assay: S. aureus survival, RN4220 and DeltatarO strains – OD600, teichoic acid synthesis inhibitors, primary screen (AID 463173)
Conditions: S. aureus RN4220 wild type/DeltatarO growth, OD600, 18 h, stronger effect = lower value, screened at 18.75 µg/mL (by protocol)

SMILES | survival
COc1ccc2cc3c(N)nn(C(=O)c4ccccc4Cl)c3nc2c1 | inactive: 87%
COc1ccc(-c2noc(CN(C(=O)C(C)Oc3ccc(C)cc3)C(C)C)n2)cc1 (stereo not drawn) | inactive: 63%
CCn1cc(C(=O)NCCc2ccc(OC)c(OC)c2)c(=O)c2cc(S(=O)(=O)N(C)C3CCCCC3)ccc21 | inactive: 54%
O=C(NCc1cccnc1)c1cn(C2CC2)c2cc(N3CCN(C(=O)c4cccc(Cl)c4)CC3)c(F)cc2c1=O | active: 1%
CCOc1ccc(NC(=O)N2CCN(c3ccc(Cl)c(Cl)c3)CC2)cc1 | inactive: 107%
Cc1ccc(C)c(NC(=O)Cn2cc(S(=O)(=O)Cc3cccc(Cl)c3)c3ccccc32)c1 | inactive: 99%
CCOc1ccc(-c2ncccc2O)cc1 | inactive: 105%
CCc1ccc(NC(=O)CN2C(=O)CSc3ccc(S(=O)(=O)N(C)C)cc32)cc1 | inactive: 80%
Cc1ccc(N2CCN(C(=O)c3cc4cc5ccc(C)cc5nc4s3)CC2C)cc1 (stereo not drawn) | inactive: 76%
Fc1ccc(-n2ncc3c(Nc4ccc5c(c4)OCCO5)ncnc32)cc1 | inactive: 97%
Cc1ccc(Nc2sc(C(=O)c3ccccc3)c(N)c2S(=O)(=O)c2ccccc2)cc1Cl | inactive: 88%
CCc1ccc(CNC(=O)Cn2nc(-c3ccc(C)cc3)ccc2=O)cc1 | inactive: 106%
Cc1nc2ccccn2c1C(=O)OCC#N | inactive: 102%
Cc1cc(S(=O)(=O)N(C)CCc2ccccc2)ccc1-n1cnnn1 | inactive: 61%
COc1ccccc1N1CCN(C(=O)CCS(=O)(=O)c2ccc3c(c2)oc(=O)n3C)CC1 | inactive: 83%
FC(F)(F)c1cccc(C(c2nnnn2Cc2ccccc2)N(Cc2ccco2)CC2CCCO2)c1 (stereo not drawn) | inactive: 105%
CC(C)Oc1ccc(C(=O)N(Cc2ccc(N(C)C)cc2)C2CCS(=O)(=O)C2)cc1 (stereo not drawn) | inactive: 54%
N#Cc1cc2c(nc1SCC(=O)N1CCOCC1)CCC2 | inactive: 97%
CCOc1cccc(CNC(=O)c2ccc(N3CCCC3)c(NC(=O)NCc3ccccc3)c2)c1 | inactive: 78%
Cc1ccccc1CNC(=O)CCS(=O)(=O)c1cc2c3c(c1)CCN3C(=O)CC2 | inactive: 113%
COc1ccc(Cl)cc1NC(=O)Cn1ccn(-c2cc(C)cc(C)c2)c(=O)c1=O | inactive: 71%
CCOC(=O)C1CCN(C2CC(=O)N(c3ccc(NC(C)=O)cc3)C2=O)CC1 (stereo not drawn) | inactive: 70%

SMILES | survival
CSc1nnc(C2CCCN(CC(=O)NC3CCCCC3C)C2)n1C (stereo not drawn) | inactive: 75%
O=C(CN1C(=O)CC(c2ccccc2)=Nc2ccccc21)Nc1ccc(Br)cc1 | inactive: 124%
CNC(=O)c1ccc2c(c1)N(Cc1cc(C)ccc1C)C(=O)c1ccccc1S2 | inactive: 85%
COc1ccc(-c2noc(CSc3nnc(C)n3-c3cccc(C)c3)n2)cc1 | inactive: 58%
COc1cc(C(=O)NCCc2csc(-c3ccc(Cl)cc3)n2)cc(OC)c1OC | inactive: 94%
COc1ccc(O)c(C2=Nc3ccccc3N=C(c3ccccc3)C2)c1 | inactive: 123%
CCOC(=O)N1CCN(C(=O)c2cnn3c(C(F)(F)F)cc(-c4cccc(OC)c4)nc23)CC1 | inactive: 68%
CCOC(=O)c1nc(Nc2ccc(C(=O)OC(C)C)cc2)c2ccccc2n1 | inactive: 68%
Cc1cc(C=C(C#N)C#N)c(C)n1-c1ccccc1 | inactive: 98%
CCOC(=O)C1=C(C)N(C2CCCCC2)C(=O)C1 | inactive: 98%
COc1ccc(C2c3c(n(C)c4ccccc34)C(=O)N2CC(=O)Nc2cccc(Cl)c2)cc1 (stereo not drawn) | inactive: 80%
CCOC(=O)c1c(NC(=O)CSc2cn(CCNC(=O)c3ccc(OC)cc3)c3ccccc23)sc2c1CCCC2 | inactive: 76%
COc1ccc(CNC(=O)c2ccc(-c3nc(CSc4ccc(C)cc4)c(C)o3)cc2)c(OC)c1 | active: 6%
CCCN1CCN(C(=O)Cn2c(-c3cccs3)cc3cc(F)ccc32)CC1 | inactive: 95%
Cc1ccc2c(c1)N(C(=O)Nc1cccc3c1CCCC3)CCO2 | inactive: 86%
O=C(NCCc1ccccc1)c1ccc(Nc2nc3ccccc3n3nnnc23)cc1 | inactive: 79%
CN(Cc1ccccc1)c1ccc(-c2nc(-c3ccncc3)no2)cc1[N+](=O)[O-] | inactive: 63%
Cc1cc(C)cc(C(=O)NCC(c2ccc(N(C)C)cc2)N2CCCC2)c1 (stereo not drawn) | inactive: 95%
COc1cccc(NC(=O)C2CCCN(S(=O)(=O)c3cccc4nonc34)C2)c1 (stereo not drawn) | inactive: 90%
Cc1cn2c(=O)c(S(=O)(=O)Nc3ccc(F)cc3F)c(C)nc2s1 | inactive: 94%
O=C(NCCC1=CCCCC1)C1CCN(C(=O)N2CCOc3ccc(Cl)cc32)CC1 | active: 47%
CCOC(=O)CC(NC(=O)CCc1c(C)nc2ncnn2c1C)c1ccc(C)cc1 (stereo not drawn) | inactive: 88%

SMILES | survival
CCOc1ccc(C(=O)NCCc2csc(-c3cccc(F)c3)n2)cc1OCC | inactive: 115%
CN1Cc2ccccc2CC1C(=O)O (stereo not drawn) | inactive: 100%
COc1ccc(C(=O)Nc2ccc3c(c2)CCCN3S(=O)(=O)c2ccc(C)cc2)c(OC)c1 | inactive: 67%
O=C(O)c1ccccc1C(=O)NC1=NN(c2ccccc2)CC1 | inactive: 73%
CCc1ccc(S(=O)(=O)c2cn(C)c3cc(N4CCCC4)c(F)cc3c2=O)cc1 | inactive: 78%
COc1ccc(S(=O)(=O)N2CCN(Cc3nc4ccc(C)cc4o3)CC2)cc1 | inactive: 84%
CC1Cc2ccccc2N1C(=O)Cn1c(-c2cccnc2)ccc(C#N)c1=O (stereo not drawn) | inactive: 87%
O=C(Cn1c(=O)n(Cc2nc(-c3ccccc3)no2)c(=O)c2ccccc21)Nc1cccc(Cl)c1 | inactive: 80%
Cc1ccc(C)c(Nc2nnc(-c3ccc(C)c(S(=O)(=O)NCC4CCCO4)c3)c3ccccc23)c1 (stereo not drawn) | inactive: 72%
O=C1CCc2cc(S(=O)(=O)NC(C(=O)Nc3cccc(F)c3)c3ccccc3)ccc2N1 (stereo not drawn) | inactive: 94%
COc1ccc(-c2c(C)c3ccc(O)c(CN4CCCC(C)C4)c3oc2=O)cc1OC (stereo not drawn) | inactive: 74%
CC(C)C1Oc2cc3oc(=O)ccc3cc2/C1=N\NC(N)=S (stereo not drawn) | inactive: 111%
CCOc1ccc(N2C(=O)c3[nH]nc(-c4ccc(OC)cc4)c3C2c2cccs2)cc1 (stereo not drawn) | inactive: 68%
COc1ccc(-c2nnc(SCC(=O)Nc3ccc(C)c(C)c3)s2)cc1 | inactive: 79%
Oc1ccccc1Nc1nc2ccccc2n2nnnc12 | inactive: 80%
O=C(NCc1ccc(Cl)cc1)c1ccc(Cn2c(=O)c3cccn3c3cccnc32)cc1 | inactive: 49%
O=C1NC(NS(=O)(=O)c2ccccc2)(C(F)(F)F)C(=O)N1c1ccc(F)cc1 (stereo not drawn) | inactive: 81%
Cc1cc(N2CCC(C(=O)N(CC(C)C)CC(C)C)CC2)n2nc(C)c(-c3ccc(Cl)cc3)c2n1 | inactive: 83%
CCc1ccccc1NC(=O)CCCN1C(=O)CCn2nc(-c3cn(C)c4ccccc34)cc21 | inactive: 130%
COc1cc(Nc2nc(SCc3ccccc3Cl)nc3ccccc23)cc(OC)c1 | inactive: 101%
COc1cccc(NC(=O)c2oc3ccccc3c2NC(=O)C2CCCCC2)c1 | inactive: 66%
COc1ccc(C(=O)/C=C/c2cn(CC(O)CN3CCc4ccccc43)c3ccccc23)cc1 (stereo not drawn) | inactive: 58%

SMILES | survival
S=c1sc2ccccc2n1CN1CCCCC1 | inactive: 95%
CCOCc1cc(CN2CCN(c3ccccc3OC)CC2)c(O)c2ncccc12 | inactive: 109%
COC(=O)c1cc(NC(=O)c2cc3sccc3n2Cc2ccc(Cl)cc2)cc(C(=O)OC)c1 | inactive: 84%
CCOc1ccc(NC(=O)CSc2oc(-c3ccccc3)nc2S(=O)(=O)c2ccc(Cl)cc2)cc1 | inactive: 161%
CCOC(=O)N1CCN(Cc2nc3cc(NC(=O)c4cccc(C)c4)ccc3n2C(C)C)CC1 | inactive: 70%
Cn1c(CC(=O)Nc2ccccc2)n[nH]c1=S | inactive: 82%
O=C(CCn1ccc2cc(S(=O)(=O)N3CCCC3)ccc21)NCc1ccccc1F | inactive: 94%
Cc1ccc(S(=O)(=O)c2nnn3c2nc(NCc2cccs2)c2sccc23)cc1 | inactive: 128%
CCn1nc(C)c2c(-c3ccccc3)cc(=O)n(C(C)C(=O)NCc3ccccc3OC)c21 (stereo not drawn) | inactive: 75%
O=C(c1cnn(-c2ccc(F)cc2)c1-n1cccc1)N1CCN(c2ccc(Cl)cc2)CC1 | inactive: 75%
O=C(Cc1ccccc1)N=Nc1c(O)[nH]c2ccccc12 | inactive: 91%
Cc1cc(C)cc(OCc2cc(=O)n3c(-c4ccccc4)csc3n2)c1 | inactive: 55%
COc1ccccc1C1C=C(c2ccc(C(C)C)cc2)Nc2nnnn21 (stereo not drawn) | inactive: 79%
Cc1cccc(CNC(=O)c2ccc3c(c2)c(C)c(C)n3Cc2ccccc2)c1 | inactive: 78%
COc1ccccc1NC(=O)Cn1c(=O)c(CNc2ccccc2)cc2cc(OC)c(OC)cc21 | inactive: 92%
COc1cc(OC)cc(-c2nc3nc(C)c(CCC(=O)Nc4ccc(C)cc4C)c(C)n3n2)c1 | inactive: 74%
O=C1CCc2cc(S(=O)(=O)NCc3ccccc3Cl)cc3c2N1CC3 | inactive: 54%
CCOC(=O)c1ccc(NC(=O)NC2CC3CCC(C2)N3Cc2nnnn2Cc2ccco2)cc1 (stereo not drawn) | inactive: 70%
O=S(=O)(c1ccccc1)c1nnn2c1nc(NCc1ccc(Cl)cc1)c1sccc12 | inactive: 83%
CCOC(=O)c1c(NC(=O)COc2cccc(C)c2C)sc(C(C)=O)c1C | inactive: 130%
COc1ccc(N2CCN(C(c3ccccc3F)c3sc4nc(-c5ccco5)nn4c3O)CC2)cc1 (stereo not drawn) | inactive: 80%
COc1ccc(Cl)cc1NC(=O)Cn1c(=O)c(-c2ccccc2NC(C)=O)nc2ccccc21 | inactive: 103%
